According to paper PMC4336329 (PLoS ONE, 2015):
Out of some 310,000 compounds screened, about 14,000 (4.5%) showed an effect of 50% or more. Effects have a minus sign here. Some of the results follow.

Molecular target: human ether-à-go-go-related gene (hERG) potassium channel (human, UniProt Q12809)
Experiment: primary screen, population patch clamp on CHO cells stably expressing hERG
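Also: peak tail current of the secondary pulse compared with the same well before compound.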

Sequence of human ether-à-go-go-related gene (hERG) potassium channel (Q12809 whole entry, looked up): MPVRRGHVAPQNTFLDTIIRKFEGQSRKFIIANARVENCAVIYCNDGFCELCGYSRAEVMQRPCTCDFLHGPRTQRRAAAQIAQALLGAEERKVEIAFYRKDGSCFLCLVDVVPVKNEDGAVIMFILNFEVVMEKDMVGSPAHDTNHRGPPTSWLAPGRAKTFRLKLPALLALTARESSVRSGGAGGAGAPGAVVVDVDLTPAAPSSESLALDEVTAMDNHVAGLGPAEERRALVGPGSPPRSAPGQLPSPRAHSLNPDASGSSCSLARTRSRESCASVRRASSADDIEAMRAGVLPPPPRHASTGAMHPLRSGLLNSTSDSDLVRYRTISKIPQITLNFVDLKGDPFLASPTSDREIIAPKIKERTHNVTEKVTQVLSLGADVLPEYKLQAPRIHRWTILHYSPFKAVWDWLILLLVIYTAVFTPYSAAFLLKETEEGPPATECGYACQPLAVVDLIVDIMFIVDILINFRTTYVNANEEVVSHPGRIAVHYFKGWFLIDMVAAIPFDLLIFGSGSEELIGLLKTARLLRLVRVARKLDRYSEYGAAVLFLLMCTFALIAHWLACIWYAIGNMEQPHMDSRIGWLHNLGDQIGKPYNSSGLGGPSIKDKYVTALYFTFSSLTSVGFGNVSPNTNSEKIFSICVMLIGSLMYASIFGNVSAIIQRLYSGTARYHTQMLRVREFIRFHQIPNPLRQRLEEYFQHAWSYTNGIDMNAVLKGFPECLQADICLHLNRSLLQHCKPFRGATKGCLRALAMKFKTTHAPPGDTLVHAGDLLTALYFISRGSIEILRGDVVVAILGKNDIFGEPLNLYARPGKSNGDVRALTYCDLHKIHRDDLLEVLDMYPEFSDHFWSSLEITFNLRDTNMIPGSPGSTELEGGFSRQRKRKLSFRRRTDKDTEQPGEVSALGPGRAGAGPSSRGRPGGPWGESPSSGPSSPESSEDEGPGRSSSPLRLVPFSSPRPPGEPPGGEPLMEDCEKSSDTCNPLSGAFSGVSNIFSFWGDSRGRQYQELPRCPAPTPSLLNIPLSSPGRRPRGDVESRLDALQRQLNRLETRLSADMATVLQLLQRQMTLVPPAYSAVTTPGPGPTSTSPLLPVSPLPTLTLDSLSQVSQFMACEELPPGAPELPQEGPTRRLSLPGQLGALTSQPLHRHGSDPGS

Row | Structure (SMILES) | hERG current change (%, negative = inhibition) at 10uM
1 | Cn1cnc(S(=O)(=O)Nc2ccc(Cl)c(C(F)(F)F)c2)c1 | 13.7%
2 | CCOC(=O)COc1ccccc1/C=C1/NC(=O)NC1=O | -3.68%
3 | Cc1cc(N2CCOCC2)ccc1/C=C1\NC(=O)N(Cc2ccccc2)C1=O | 18.5%
4 | CCOC(=O)C(=CNc1ccccc1C)C(=O)OCC | -2.33%
5 | COc1cc(/C=N/NC(N)=O)ccc1OCC(=O)Nc1cc(C)c(C)cc1Br | 41.7%
6 | O=C(Cn1nnc(-c2ccc(Cl)cc2)n1)NC1CCN(Cc2ccccc2)CC1 | -16.9%
7 | CCOC(=O)N1CCN(C(=O)c2ccc3c(c2)ncn3C2CCCC2)CC1 | -2.67%
8 | COc1ccc(NC(=O)N2CCN(S(C)(=O)=O)CC2)cc1 | 21.6%
9 | c1ccc(CNc2ncnc3c2oc2ccccc23)nc1 | -1.56%
10 | O=C(N/N=C/c1ccc[nH]1)c1cccc([N+](=O)[O-])c1 | -2.45%
11 | CCOC(=O)c1c(NC(=O)c2cccs2)sc(C)c1CC | 2.45%
12 | COc1ccc(-n2c(=O)c3ccccc3n(CC(=O)NCc3ccco3)c2=O)cc1 | 18.3%
13 | CCn1c(=O)c2c(nc3n2CCS3)n(C)c1=O | 8.6%
14 | Cc1cccc(/C=N/n2c(C)nc3ccccc3c2=O)c1 | -10.7%
15 | Cc1cc(/C=C2\C(=O)NC(=O)N(c3ccc(Br)cc3)C2=O)c(C)n1-c1cc(C(=O)O)cc(C(=O)O)c1 | 9.45%
16 | CCN(CC)C(=O)c1ccc2c(=O)n(CCOC)c(=S)[nH]c2c1 | -7.02%
17 | Cc1cccc(NS(=O)(=O)c2cc(C(=O)OC(C)C(=O)NCc3ccc4c(c3)OCO4)ccc2C)c1 (stereo not drawn) | -17.3%
18 | CC(C)Cc1nnc(NC(=O)CSc2nc(=O)cc(N)n2-c2ccccc2)s1 | -2.71%
19 | Cc1ccc(NC(=O)c2ccc(OCc3c(C)noc3C)cc2)c(C)c1 | -7.97%
20 | Cc1nc(C(=O)N2CCCC(Nc3ccc(C)c(C)c3)C2)cs1 (stereo not drawn) | 23.5%
21 | CCN(CC)CCOC(=O)/C=C/c1ccccc1.Cl | -12.4%
22 | Cc1cc(C)c(C#N)c(Oc2ccccc2)n1 | 1.32%

Row | Structure (SMILES) | hERG current change (%, negative = inhibition) at 10uM
23 | COC(=O)C1=C(C)N(Cc2ccccc2)C(=NCc2ccc(OC)cc2)N[C@H]1c1cccc(F)c1 | 6.76%
24 | CC(C)c1ccc2[nH]c3nc(SCC(=O)N4CCOCC4)nnc3c2c1 | 23.1%
25 | Cc1ccc(OCC(=O)N2CCC(N3CC(C)CC(C)C3)CC2)cc1 (stereo not drawn) | -45.5%
26 | CCCOc1ccc(N2C(=O)CC(SCCc3nc4ccccc4[nH]3)C2=O)cc1 (stereo not drawn) | -23.2%
27 | Cc1ccc(S(=O)(=O)N2CCC(C(=O)OCC(=O)N3CCCC3=O)CC2)cc1C | 4.7%
28 | COc1ccc(OC)c(/C=C/C(=O)c2ccc(Cl)cc2)c1 | 4.68%
29 | Cc1c(/C=N/NC(=O)C(C)(C)Oc2ccc(Cl)cc2)cnn1C | -10.4%
30 | O=C(COc1ccccc1)Nc1cc(C(F)(F)F)ccc1N1CCCC1 | 20.3%
31 | Cc1ccc(C(=O)N2CCN(c3ncnc4c3cnn4-c3ccccc3)CC2)cc1 | -0.928%
32 | CCC1(c2ccc(F)cc2)NC(=O)N(CC(=O)N2c3ccccc3NC(=O)CC2C)C1=O (stereo not drawn) | -58.4%
33 | Cc1c(NC(=S)NC(=O)COc2ccccc2)c(=O)n(-c2ccccc2)n1C | 6.73%
34 | COc1ccc(OC)c(-c2nn(-c3ccccc3)cc2C(=O)NCC(c2cccs2)N2CCOCC2)c1 (stereo not drawn) | -30.2%
35 | Cc1ccsc1CNCCc1ccccc1F | -5.57%
36 | CCCNC(=O)c1cc(S(=O)(=O)N2CCCCC2)c[nH]1 | 21.4%
37 | Cc1[nH]nc2c1C1(CCN(C(=O)c3ccccc3)CC1)C(C#N)=C(N)O2 | -0.805%
38 | O=C(Nc1ccccc1)Nc1cccc2nsnc12 | -16.9%
39 | O=C(O)C(c1ccccc1)C1(O)CCCC1 (stereo not drawn) | 5.92%
40 | CC1=C(C(=O)Nc2ccccc2C)C(c2ccc(C)o2)n2c(s/c(=C/c3ccccc3)c2=O)=N1 (stereo not drawn) | 0.661%
41 | Cc1cccc(N2C(=O)NC(=O)/C(=C\c3ccc(N4CCOCC4)cc3)C2=O)c1 | 24.9%
42 | CCn1c(SCC(=O)c2ccc3c(c2)Cc2ccccc2-3)nnc1-c1ccc(N)cc1 | 8.11%
43 | Cc1ccc(S(=O)(=O)N2CCC(C(=O)N[C@@H](C)C(=O)Nc3ccc(F)cc3)CC2)cc1 | -0.951%
44 | CCOC(=O)N1CCN(C(=O)C2CCC(=O)N2C(C)C)CC1 (stereo not drawn) | -2.08%

Row | Structure (SMILES) | hERG current change (%, negative = inhibition) at 10uM
45 | Cc1c(C)n2c(SCC(=O)Nc3ccc4c(c3)OCCO4)nnc2[nH]c1=O | 4.29%
46 | COCCNC(=O)NC(=O)CN1C(=O)NC(Cc2c[nH]c3ccccc23)C1=O (stereo not drawn) | 15.3%
47 | COc1ccc(C2C(C#N)=C(N)Oc3c2c(-c2ccccc2)nn3-c2ccccc2)c(OC)c1OC (stereo not drawn) | -1.15%
48 | COc1ccc(N2CCN(/C(=N\S(=O)(=O)c3ccccc3)Nc3nc(C)cc(C)n3)CC2)cc1 | -8.79%
49 | Cc1cc(/C=C(/C#N)C(=O)Nc2ccc(Cl)cc2)c(C)n1-c1cccnc1 | -67.5%
50 | CCOC(=O)C1CCN(CC(C)(C)NS(=O)(=O)c2ccccc2)CC1 | 11.5%
51 | CC1CN(C(=O)CCC(=O)N2CCOCC2)c2ccccc2O1 (stereo not drawn) | -12.2%
52 | CCOC(=O)/C(C(N)=NC)=C(\O)c1ccccc1 | 1.21%
53 | COc1ccccc1Nc1nc(N)nc(CN2CCN(Cc3ccccc3)CC2)n1 | -73.2%
54 | Cc1cc(C)c2c(c1)-c1c(ssc1=S)C(C)(C)N2C(=O)CSc1nncn1C | -30.4%
55 | CCCN1CCN(CCCNC(=O)c2cc3c(=O)[nH]c4ccccc4c3s2)CC1 | -8.3%
56 | Cc1[nH]c2ccccc2c1/C=C/C(=O)c1ccccc1 | 1.64%
57 | O=C(CCn1ccc([N+](=O)[O-])n1)NC1CCCCCC1 | -5.39%
58 | N#Cc1c2c(c(NCCOCCO)n3c1nc1ccccc13)CCCC2 | -63.3%
59 | O=C1[C@@H]2CSCN2C(=O)CN1Cc1c(F)cccc1Cl | 3.59%
60 | CCOc1cc(CNCCO)cc(Br)c1OCc1ccccc1Cl.Cl | 12.5%
61 | O=C(O)/C=C/C(=O)Nc1ccc(OC(F)(F)F)cc1 | 8.3%
62 | CC(C)CC1NC(=O)N(CC(=O)Nc2cccc(Br)c2)C1=O (stereo not drawn) | 1.02%
63 | CN(Cc1ccccc1)C(=O)c1ccc(NC(=O)Cc2cccc(NC(=O)C3CCCN(C(=O)CCc4ccccc4)C3)c2)cc1 (stereo not drawn) | 5.19%
64 | CC(Oc1ccc(F)cc1F)C(=O)/C=C/N(C)C (stereo not drawn) | -3.08%
65 | Cc1ccc(-c2csc3ncn(CC(=O)NCC(c4ccco4)N4CCCC4)c(=O)c23)cc1 (stereo not drawn) | -39.7%
66 | COc1ccc(OCc2csc(N)n2)cc1 | 39.4%

Row | Structure (SMILES) | hERG current change (%, negative = inhibition) at 10uM
67 | CN(C)/C=C(\C#N)C(=O)c1cccnc1Oc1ccc(F)cc1F | -5.93%
68 | CCCCNc1ncnc2c1cnn2Cc1ccc(Cl)cc1 | -2.19%
69 | CCCCN(C(=O)CSCc1c(C)noc1C)c1c(N)n(CCC)c(=O)[nH]c1=O | 15.9%
70 | CCSc1nnc(-c2cccc(S(=O)(=O)N(CC)CC)c2)n1Cc1ccccc1 | -62.6%
71 | CC(=O)N(C1=C(Cl)C(=O)c2ccccc2C1=O)C1CCCCC1 | -10.6%
72 | COc1ccc(-c2nnn(CC(=O)N3CCN(c4ccc(F)cc4)CC3)n2)cc1 | -0.297%
73 | O=C(Nc1cccc(F)c1)N(Cc1ccc(Cl)cc1)CC(O)C(F)(F)F (stereo not drawn) | -13.5%
74 | CC(C)C(=O)N1CCC2(CC1)Oc1ccc(Cl)cc1C(=O)C21CC(c2ccccc2)=NO1 (stereo not drawn) | -46.4%
75 | S=C(NNC(=S)NC1CC2CCC1C2)NC1CC2C=CC1C2 (stereo not drawn) | 15.1%
76 | COc1ccc(NC(=O)Cn2nnc(C(=O)NCc3ccc4c(c3)OCO4)c2N)cc1 | 18.4%
77 | COC(=O)C1=C(C)NC(C)=C(C(=O)OC)C1c1ccc(-c2cc(Cl)ccc2Cl)o1 | 7.34%
78 | c1ccc(-c2ccccc2-n2cnnn2)cc1 | -8.42%
79 | CN(C)c1ccc(P(=O)(Nc2cccc(C(F)(F)F)c2)N2CCOCC2)c(NC(=O)c2cccs2)c1 (stereo not drawn) | 10.1%
80 | CC(C)Oc1cccc(C(=O)NC(=S)Nc2ccccc2N2CCOCC2)c1 | -6.42%
81 | Fc1ccc(Sc2nc(-c3ccccc3)nnc2C(F)(F)F)cc1 | 21.5%
82 | COc1ccccc1COCC(O)CN1CCCCC1CO.O=C(O)C(=O)O (stereo not drawn) | 18.6%
83 | O=C(COc1cc(Cl)ccc1Cl)Nc1ccc2[nH]c(=O)[nH]c2c1 | 12.8%
84 | Cc1cc(S(=O)(=O)NCCc2ccccc2)ccc1-n1cnnn1 | -17.1%
85 | O=[N+]([O-])c1ccc(S(=O)(=O)N/N=C/c2ccco2)cc1 | 7.64%
86 | Nc1nc(N)nc(-c2cc(O)ccc2O)n1 | 10.3%
87 | Cc1ccc(C)c(NC(=O)CCC(=O)NNC(=O)c2cccs2)c1 | 13.1%
